# In PubChem BioAssay AID485344 (National Center for Advancing Translational Sciences (NCATS), 2010):
# The campaign covered roughly 340,000 compounds. About 6,900 (2%) were called active. Cut-off read from the data, not from the text of the source: active = inhibition above about 30%; inactive = below that, where a call was filed. The list shows a part of the results, in another mix than the full data. Entries without a call were filed so in the source.
# Target: D(2) dopamine receptor (Homo sapiens) (UniProt P14416)
# Experiment: HTS Assay for Allosteric Antagonists of the Human D2 Dopamine Receptor: Primary Screen for Antagonists; note: 0% is about no effect
# Conditions: HEK293 TREx D2 cells, calcium flux, dopamine EC80; at 10 µM; stronger effect = higher value
# Method in brief: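 Compounds are added to dye-loaded, induced HEK293 T-REx cells coupled to calcium release via D2; after a 3 min kinetic read an EC80 dopamine stimulus is given and fluorescence is recorded for 3 more min.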
# UniProt P14416, sequence (P14416 whole entry, looked up): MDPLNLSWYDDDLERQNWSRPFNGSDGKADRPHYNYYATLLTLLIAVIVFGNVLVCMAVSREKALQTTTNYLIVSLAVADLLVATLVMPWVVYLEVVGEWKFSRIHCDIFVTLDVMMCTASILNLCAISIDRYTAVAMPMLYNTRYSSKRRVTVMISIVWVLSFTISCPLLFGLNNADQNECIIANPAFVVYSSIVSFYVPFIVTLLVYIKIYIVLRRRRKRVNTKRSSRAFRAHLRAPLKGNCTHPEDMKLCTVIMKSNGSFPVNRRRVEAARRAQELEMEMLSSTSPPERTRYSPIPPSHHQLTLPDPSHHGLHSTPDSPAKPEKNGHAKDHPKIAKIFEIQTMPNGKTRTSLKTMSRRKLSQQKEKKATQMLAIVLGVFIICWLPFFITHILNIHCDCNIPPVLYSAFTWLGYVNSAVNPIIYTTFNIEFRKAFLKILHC
row,SMILES,inhibition
1,CCOC(=O)C1CCN(c2nc3c(S(=O)(=O)c4ccc(CC)cc4)nnn3c3ccc(Cl)cc23)CC1,13.6%
2,CC(=O)c1ccc(NC(=O)C2CCCN(S(=O)(=O)c3ccc(Br)s3)C2)cc1 (stereo not given),6.21%
3,CCOc1ccc(NC(=O)c2sc3nc4n(c(=O)c3c2C)CCCC4)cc1,-9.87%
4,CCOC(=O)c1ccc(NC(=O)C2CCN(S(=O)(=O)Cc3ccccc3)CC2)cc1,-12.4%
5,Cc1cc(Cl)ccc1NC(=O)CS(=O)(=O)c1cccc2nsnc12,17.6%
6,Cc1ccc2c(c1)-c1c(cnn1CC(=O)N1CCN(c3cc(Cl)ccc3C)CC1)CO2,1.03%
7,CC(C)C(NS(=O)(=O)c1cccc2cccnc12)C(=O)Nc1ccc(OC(F)(F)F)cc1 (stereo not given),3.53%
8,O=C(c1ccccc1)c1ccc2nc(Nc3cc(Cl)ccc3O)c3nncn3c2c1,6.83%
9,COc1ccc(F)cc1C(=O)C1CCCN(Cc2cnc(N3CCCC3)s2)C1 (stereo not given),active: 66%
10,CC1CN(CC(=O)c2c(N)n(Cc3ccccc3)c(=O)n(C)c2=O)CC(C)O1 (stereo not given),active: 35.8%
11,CCN1CCC(N(Cc2ccc(F)cc2)C(=O)Nc2cc(Cl)ccc2C(=O)OC)CC1,-8.73%
12,CC(=O)c1ccc(N2CCN(C(=O)c3ccc(Cn4c(=O)[nH]c5ccccc5c4=O)cc3)CC2)cc1,-7.72%
13,CC(C)c1ccc(NC(=O)C2(C)Cc3ccccc3C(=O)O2)cc1 (stereo not given),-2.37%
14,CCCOc1ccc(C2c3c(oc4ccccc4c3=O)C(=O)N2c2nc(C)c(C(=O)OCC)s2)cc1 (stereo not given),3.54%
15,COc1ccc(S(=O)(=O)NCc2ccc(C(=O)NCc3ccccc3)cc2)cc1,-2.45%
16,Cc1cc(C)c(NC(=O)CCC(=O)N2Cc3ccccc3Oc3ncccc32)c(C)c1,5.99%
17,COC(=O)c1ccccc1NC(=O)Cn1c(=O)n(CCCC(=O)NCCc2ccc(OC)c(OC)c2)c(=O)c2ccccc21,14.3%
18,COc1ccc(Nc2cc(C)c3cc(NC(=O)c4cc(OC)cc(OC)c4)ccc3n2)cc1,-15.6%
19,CCOC(=O)C1CCN(CCC(=O)Nc2ccc(OC)cc2)CC1,-2.37%
20,Cc1ccc(NC(=O)c2ccc(CSc3nccc(C)n3)cc2)cc1,active: 31.1%

row,SMILES,inhibition
1,CCCN1C(=O)C2(c3ccccc31)c1c(oc3ccc(C)cc3c1=O)C(=O)N2CCOC (stereo not given),2.62%
2,Cc1ccccc1OCCN1CCC(Cc2ccccc2)CC1,active: 46.3%
3,Cc1nc(N2CCOCC2)c2c(C(=O)N3CCN(c4cccc(C)c4C)CC3)c(C)oc2n1,17.3%
4,COc1cc(C(=O)N2CC(=O)Nc3ccc(C)cc3C2c2ccc(F)cc2)cc(OC)c1OC (stereo not given),-3.17%
5,CCc1ccc(NC(=O)c2cc3c([nH]c2=O)CC(C)(C)CC3=O)cc1,-3.11%
6,CC(=O)c1cccc(NC(=O)c2cc3nc(-c4ccc(Br)cc4)cc(C(F)(F)F)n3n2)c1,10.5%
7,COc1ccc(NC(=O)CN2CCN(c3ccccc3)CC2)cc1,active: 50%
8,COc1ccc(CNC(=O)c2ccc(-c3nc(CSc4ccccc4)c(C)o3)cc2)c(OC)c1,5.62%
9,N#Cc1c[nH]n2c(NC3CCCCC3)c(-c3cccc(Cl)c3)nc12,13.8%
10,CCOc1ccc2oc(=O)cc(CN3CCN(c4ccccc4)CC3)c2c1,-2.07%
11,Cc1ccc(-c2nc(C)c(CCNC(=O)C(=O)Nc3ccc4c(c3)OCO4)s2)cc1,-14.5%
12,COc1ccc(CCN2C(=O)N(c3ccccc3)C(=O)C2CC(=O)Nc2ccccc2)cc1 (stereo not given),-5.54%
13,O=c1c2cnn(-c3ccc(F)cc3)c2ncn1Cc1ccc(F)cc1,-8.17%
14,Cc1cccc(NC(=O)Cc2ccc(-n3c(C)nc4cccnc43)cc2)c1C,7.71%
15,COc1ccc(Cl)cc1NC(=O)Cn1cc2c(n1)CCC(C)C2 (stereo not given),-0.708%
16,Cc1cc(-c2ccc(S(=O)(=O)Nc3ccc(Br)c(C)c3)s2)on1,3.79%
17,COc1ccc(CNC(=O)C2Cc3cc(S(=O)(=O)N4CCCCCC4)ccc3N2C(C)=O)cc1 (stereo not given),12.5%
18,COc1ccc(Nc2cc(C(=O)NCc3ccccc3)c3ccccc3n2)c(OC)c1,2.41%
19,Cc1oc2ccc(O)c(CN3CCCC3)c2c1C(=O)Nc1cccc(Cl)c1C,-8.34%
20,Cc1cccc(NC(=O)CSc2nc3c(oc4ccccc43)c(=O)n2-c2ccc(F)cc2)c1,-0.567%

row,SMILES,inhibition
1,COc1ccc2c(CNCCc3ccccc3)c(C(=O)O)n(Cc3cccc(F)c3)c2c1,14.3%
2,COc1ccc(-c2noc(-c3cccc(OC)c3OC)n2)cc1,7.28%
3,O=S(=O)(c1ccc2nc(N3CCN(c4ccccc4)CC3)ccc2c1)N1CCCCC1,16.6%
4,Cc1ccc(NC(=O)CC(C)S(=O)(=O)c2ccc3c(c2)NC(=O)CO3)cc1C (stereo not given),5.7%
5,CCOc1ccc(-c2cn3c(n2)sc2cc(C(=O)NC4CCCc5ccccc54)ccc23)cc1 (stereo not given),-3.75%
6,CSc1ncc(C(=O)Nc2ccc(C(C)=O)cc2)c(-c2ccccc2)n1,4.03%
7,COc1ccc(NC(=O)c2cn3c4c(ccc(Cl)c4c2=O)OC(C)C3)cc1OC (stereo not given),-0.191%
8,CCOc1ccc2nc(NC(=O)c3cc(=O)c4cc(C)cc(C)c4o3)sc2c1,-7.02%
9,COc1ccc(N(Cc2cccs2)C(=O)COc2cc(C)c(Cl)c(C)c2)cc1,13.4%
10,CCOC(=O)c1ccc(NC(=O)CCc2c(C)nc3c(-c4ccc(F)cc4)c(C)nn3c2C)cc1,19.6%
11,Cc1ccc(-c2onc(C)c2C)cc1S(=O)(=O)Nc1ccc(Cl)cn1,6.35%
12,COc1ccc(NC(=O)C2Cc3ccccc3N2C(=O)c2ccccc2)cc1OC (stereo not given),-3.51%
13,Cc1ccccc1C(=O)Nc1ccc(C(=O)OCc2cc(=O)n3nc(C(C)C)sc3n2)cc1,-9.5%
14,CCOc1ccc(NC(=O)N(C(C)C)C2CCN(C(C)=O)CC2)cc1,25.1%
15,COc1ccc(C(=O)Oc2cc(-c3ccc4c(c3)OCO4)cc(=O)c3c(C)oc(C)c23)cc1,-9.21%
16,O=C(CSc1ncc(CO)n1Cc1ccc(Cl)cc1)NCc1ccc(F)cc1,-6.5%
17,COc1ccc(CNC(=O)c2cc3cccc4c3n2CC(C)S4)c(OC)c1 (stereo not given),-14.6%
18,Cc1cccc(NC(=O)CSc2nc(=O)n(Cc3ccccn3)c3c2CCC3)c1C,1.43%
19,COc1ccc(S(=O)(=O)N2CCN(CC(=O)Nc3ccc(Cl)c(C(F)(F)F)c3)CC2)cc1,13.4%
20,Cc1ccc(Cl)cc1NC(=O)CSc1nc2c(c(=O)[nH]1)CN(Cc1ccccc1)CC2,15.4%
